Data published in patent US6906072B1 (Eisai Co., Ltd., priority 2000, dated 2005).

Tested on: potential dependent calcium channel
Assay: Measurement of potential dependent calcium channel activity using fluorescent dye (fura2) in cerebral cortex synaptosome stimulated with KCl
Type: cell-based
Settings: rat cerebral cortex synaptosome, KCl stimulation, fura2, intracellular calcium ion concentration

Structure (SMILES)	IC50 [µM]
CC(C)C(C#N)(CCCN1CCN(CCOc2ccc(C(F)(F)F)cn2)CC1)c1cccs1 (stereo not drawn) [Example 183, 1-[4-Cyano-4-(2-thienyl)-5-methylhexyl]-4-[2-(5-trifluoromethyl-2-pyridyloxy)ethyl]piperazine]	5.5
CC(C)C(C#N)(CCCN1CCN(CCOc2ccc(C(F)(F)F)cn2)CC1)c1ccc(C#N)s1 (stereo not drawn) [Example 184, 1-[4-Cyano-4-(5-cyano-2-thienyl)-5-methylhexyl]-4-[2-(5-trifluoromethyl-2-pyridyloxy)ethyl]piperazine]	5.4
CC(C)C(C#N)(CCCN1CCN(CCOc2cncc(Cl)c2)CC1)c1cccs1 (stereo not drawn) [Example 185, 1-[4-Cyano-4-(2-thienyl)-5-methylhexyl]-4-[2-(5-chloro-3-pyridyloxy]ethyl]piperazine]	13
